Laboratory results reported in PubChem BioAssay AID686978 (National Center for Advancing Translational Sciences (NCATS), 2013).
The campaign covered roughly 420,000 compounds. About 64,000 (15%) were called active. This list was built around the results that the source calls inconclusive (neither active nor inactive); the mix of calls is not that of the screen. Calls come from the whole dose curve; as a rule, active = well fitted inhibition curve with a large enough effect; inconclusive = small, poorly fitted or top-dose-only effect; inactive = flat fitted curve, though single readings scatter. Potencies of inconclusive entries are left out as doubtful fits.

Assay: qHTS for Inhibitors of human tyrosyl-DNA phosphodiesterase 1 (TDP1): qHTS in cells in absence of CPT; note: nearly all actives have a fitted effect of over 55% in size
Conditions: DT40 Tdp1-/- hTDP1 cells, no CPT, ATP luminescence, 48 h; activity change, negative = growth inhibition: at 46.2 µM (top of the series) unless noted
Outline: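 A cellular qHTS used chicken DT40 cells lacking endogenous Tdp1 but carrying stably transfected human TDP1. Compounds were applied without camptothecin, and cell growth kinetics were judged by ATP-dependent luminescence after ≥48 hr.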
% is set by controls: 0 for no effect and ±100 for the full control effect; potency is the fitted concentration of half-maximal effect; tags give direction and shape of the fitted curve.

Row | Structure (SMILES) | activity change, negative = growth inhibition | Potency
1 | Cc1ccc(S(=O)(=O)N2CCN(C(=O)CC(C)n3cncn3)CC2)cc1C (centres undefined) | inactive: -16.7% | 
2 | Cc1ccc(C)c(OCC(=O)N(C)CC(=O)Nc2ccc(Cl)c(C(F)(F)F)c2)c1 |  | inconclusive [inhibitor, single point]
3 | Brc1ccc(C2=Nn3c(Cn4nnc5ccccc54)nnc3SC2)cc1 |  | inconclusive [inhibitor, single point]
4 | COc1ccc(C(=O)N2CCCC(c3nc(-c4ccc(OC)c(OC)c4)no3)C2)c(OC)c1 (centres undefined) |  | inconclusive [inhibitor, single point]
5 | CC(C(=O)N1c2ccc(F)cc2CCC1C)N1C(=O)c2ccccc2C1=O (centres undefined) | inactive: -11.6% | 
6 | Cc1ccc(C(=O)/C=C/Nc2ccc(S(=O)(=O)Nc3onc(C)c3C)cc2)cc1 |  | inconclusive [inhibitor, single point]
7 | Cn1cc(CN2CCN(Cc3ccccc3)CC2)c(-c2cccc(Cl)c2)n1 |  | inconclusive [inhibitor, single point]
8 | COC(=O)c1cnn(-c2ccccc2)c1/C=N/NC(=S)Nc1ccc(Cl)cc1 |  | inconclusive [inhibitor, single point]
9 | CCCc1cnc2c(c1SCC(=O)Nc1ccc(C)c(Cl)c1)c(=O)n(C)c(=O)n2C |  | inconclusive [inhibitor, single point]
10 | COc1cc(/C=C(\C#N)c2nc3ccccc3[nH]2)ccc1OCc1cccc(C(F)(F)F)c1 |  | active: 9.2 µM
11 | O=[N+]([O-])c1ccccc1OCCCN1CCc2ccccc2C1 |  | inconclusive [inhibitor, single point]
12 | COc1ccc(-c2noc(CN(C)C(=O)c3ccoc3C)n2)cc1 |  | active: 16.4 µM
13 | CCOc1ccc(/C=C2/Sc3ccc(C(=O)N4CCOCC4)cc3N(C)C2=O)cc1OC |  | active: 16.4 µM
14 | COc1ccc(N2C(=O)[C@@H]3[C@H](C2=O)[C@H]2C=CC=NN2[C@@H]3C(=O)Nc2ccc(Cl)cc2)cc1 |  | inconclusive [inhibitor, single point]
15 | COc1ccc(F)cc1CN1CCN(CC(=O)Nc2ccccc2C(=O)NC2CC2)CC1 |  | inconclusive [inhibitor, single point]
16 | Cc1cccc(NC(=O)c2ccccc2Br)n1 | inactive: -23.3% | 
17 | CCc1nc2ccc(C(=O)NCCOc3ccc(OC)cc3)cn2c1N(C)C(=O)Cc1ccccc1 |  | inconclusive [inhibitor, single point]
18 | CN(Cc1ccccc1)C(=S)NC(=O)c1cccs1 |  | inconclusive [inhibitor, single point]
19 | CC12COC3(C(=O)Nc4ccc(Cl)cc4)CC1CCC32C (centres undefined) |  | inconclusive [inhibitor, partial curve]
20 | CCN1C(=O)[C@H]2[C@@H](c3ccc(-c4ccc(OC)cc4)cc3)N[C@@](C)(C(=O)OC)[C@H]2C1=O |  | inconclusive [inhibitor, partial curve]
21 | Cc1cccc(C)c1-n1nnnc1C(c1cccs1)N1CCN(C/C=C/c2ccccc2)CC1 (centres undefined) |  | inconclusive [inhibitor, single point]
22 | CNC(=O)/C(C#N)=C/c1c(N(Cc2ccccc2)Cc2ccccc2)nc2c(C)cccn2c1=O |  | inconclusive [inhibitor, single point]
23 | CN(C(=O)CSCC(=O)O)C1CCCCC1 | inactive: -2.66% | 

Row | Structure (SMILES) | activity change, negative = growth inhibition | Potency
24 | COc1cccc(CCC(=O)N(C)C2CCCN(Cc3ccccc3F)C2)c1 (centres undefined) |  | inconclusive [inhibitor, partial curve, poor fit]
25 | COc1ccc(CN2CCC(C)CC2)cc1OCc1ccccc1 | inactive: -22.2% | 
26 | Cc1cccc(N=C2NC(=O)/C(=C/C=C/c3ccco3)S2)c1 |  | active: 23.1 µM
27 | CN(C)c1ccc(/C=C/c2ccnc3ccc(I)cc23)cc1 |  | active: 3.98 µM
28 | CS(=O)(=O)N(CC(=O)Nc1ccc(Br)cc1)C1CCCCC1 |  | active: 23.1 µM
29 | O=c1cc(-c2ccccc2)nc2nc(-c3ccccc3)[nH]n12 |  | inconclusive [inhibitor, partial curve]
30 | CN(C)C(=O)COC(=O)c1ccccc1Nc1ccc(SC(F)F)cc1 |  | inconclusive [inhibitor, single point]
31 | COC(=O)c1c(NC(=O)C(C)(C)C)sc2c1C(C(=O)OC)CC2 (centres undefined) |  | inconclusive [inhibitor, partial curve]
32 | O=S(=O)(c1ccc(Br)s1)N1CCN(CCOc2ccccc2)CC1 |  | inconclusive [inhibitor, partial curve]
33 | CC(C)(C)OC(=O)NCc1ccc(NC(=O)c2nc[nH]c2C(=O)NCCNC(=O)c2[nH]cnc2C(=O)Nc2ccc(CNC(=O)OC(C)(C)C)cc2)cc1 |  | active: 18.4 µM
34 | O=C(CCCN1C(=O)c2cccc3cccc(c23)C1=O)N1CCN(c2ccccn2)CC1 |  | inconclusive [inhibitor, single point]
35 | CC(=O)c1ccc(NC(=O)CN2c3cccc4cccc(c34)S2(=O)=O)cc1 |  | inconclusive [inhibitor, single point]
36 | CCOc1ccccc1C(=O)NC1CCN(Cc2nnnn2C2CCCC2)CC1 |  | inconclusive [inhibitor, single point]
37 | Cc1ccc(NC(=S)NCc2ccccc2)c(C)c1 |  | inconclusive [inhibitor, single point]
38 | CCOc1ccc(C(=O)Nc2ccc(NC(=O)c3ccco3)c(Cl)c2)cc1Br |  | inconclusive [inhibitor, single point]
39 | CN(C(=O)CCc1ccccc1F)C1CCCN(Cc2ccccc2F)C1 (centres undefined) |  | active: 16.4 µM
40 | CC(N)c1csc(Nc2ccc(C(=O)NCCCO)cn2)n1 (centres undefined) | inactive: -10.7% | 
41 | Cc1ccc(C)c(Cn2nnc3c(=O)[nH]c(C4CCCN(S(=O)(=O)Cc5ccccc5)C4)nc32)c1 (centres undefined) |  | inconclusive [inhibitor, single point]
42 | Cc1cc(/C=C2/SC(=O)N(CC(=O)OC(C)C)C2=O)c(C)n1C |  | inconclusive [inhibitor, single point]
43 | CC(=O)c1c(C)oc2ccc(OCc3ccccc3)cc12 | inactive: 7.79% | 
44 | CCOc1ccc(CCN2CN(C3CCCCC3)CNC2=S)cc1OCC |  | active: 18.4 µM
45 | O=c1c2c(nc3n1CCCCC3)-c1ccccc1CC21CCCCC1 |  | inconclusive [inhibitor, partial curve]
46 | COc1ccc(S(=O)(=O)N(C)C)cc1NC(=O)CSc1nnc(-c2cccnc2)o1 | inactive: -11.1% | 

Row | Structure (SMILES) | activity change, negative = growth inhibition | Potency
47 | CN1OC[C@@H]2CN(Cc3ccccc3)[C@H](c3cccc(N4CCOCC4)c3)C[C@@H]21 | inactive: 6.29% | 
48 | COc1ccc(-n2c(=O)c(CCC(=O)N3CCN(c4ccccc4O)CC3)nc3ccccc32)cc1 |  | inconclusive [inhibitor, single point]
49 | C#Cc1cccc(Nc2ncnc3cc(OC)c(OC)cc23)c1 |  | active: 23.1 µM
50 | O=C(NNC(=O)c1cccnc1SCc1cccc([N+](=O)[O-])c1)c1cccnc1 |  | inconclusive [inhibitor, single point]
51 | O=C(O)C1(c2ccccc2)CCN(S(=O)(=O)c2ccc(F)c(F)c2)CC1 | inactive: 0.133% | 
52 | Cc1ccc(C2(O)C(=O)c3ccccc3C2=O)c(O)c1C |  | inconclusive [inhibitor, partial curve, poor fit]
53 | CC(Oc1ccccc1)C(=O)Nc1nnc2n1CCS2 (centres undefined) | inactive: -4.45% | 
54 | COc1ccccc1-c1cnc(C(O)c2ccc(C)c(F)c2)[nH]1 (centres undefined) |  | inconclusive [inhibitor, single point]
55 | Cc1ccc(C)c(S(=O)(=O)N2CCN(C(C(=O)Nc3ccc(F)cc3)c3ccccc3)CC2)c1 (centres undefined) |  | inconclusive [inhibitor, single point]
56 | CCN(CC)c1ccc(NC(=O)/C=C\c2ccccc2Cl)cc1 |  | inconclusive [inhibitor, partial curve]
57 | COc1ccc(CNC(=O)c2ccccc2NC(=O)C2=C(C)OCCS2)cc1 |  | inconclusive [inhibitor, single point]
58 | CCOC(=O)C1CCCN(c2cc(C)nc3cc(-c4ccc(F)cc4)nn23)C1 (centres undefined) |  | active: 23.1 µM
59 | Cc1c(O)c2c(c(C(=O)/C=C/c3ccccc3)c1O)OC(C)(C)C=C2 |  | active: 11.2 µM
60 | C#Cc1ccc([C@H]2C=C(C(=O)NCc3ccccc3)O[C@@H](OCC)[C@@H]2CCCO)cc1 |  | inconclusive [inhibitor, single point]
61 | Cc1ccc(S(=O)(=O)n2ccc3c2CCCC3=O)cc1 |  | active: 20.6 µM
62 | COc1cc(-c2nc3nc(C)cc(C)n3c2Nc2ccc(Cl)cc2)ccc1O |  | inconclusive [inhibitor, single point]
63 | CC1(c2ccc(Cl)cc2)NC(=O)N(CC(=O)N2CCN(C(=O)c3cccs3)CC2)C1=O (centres undefined) |  | inconclusive [inhibitor, partial curve, poor fit]
64 | O=C(c1cc2ccc3cccnc3c2[nH]1)N1CCN(c2ccccc2)CC1 | inactive: -29.4% | 
65 | COC(=O)C1=C(C)Nc2c(c(=O)n(C)c(=O)n2C)C1c1ccc(C)cc1 (centres undefined) | inactive: -18.5% | 
66 | Cc1csc(NC(=O)CSc2nnc(Cn3c(=O)sc4ccccc43)n2-c2ccccc2)n1 | inactive: -99.8% | 
67 | COc1ccc(Cn2c(C(=O)O)c(CNCc3ccc(C)o3)c3ccc(C)cc32)cc1 |  | inconclusive [inhibitor, single point]
68 | O=C1c2ccccc2N2C(=O)c3ccccc3[C@H]2N1c1ccccc1 |  | active: 18.4 µM
69 | Cc1ccsc1C(=O)C1CCCN(Cc2cc(F)ccc2-n2cccn2)C1 (centres undefined) |  | active: 11.6 µM
